Experimental data taken from PubChem BioAssay AID504832 (National Center for Advancing Translational Sciences (NCATS), 2011).
Among all 310,000 compounds or so, about 18,000 (5.8%) were called active. Inconclusive means that the source gave no clear call. Such entries were picked first, then a sample of the others. Calls come from the whole dose curve; as a rule, active = well fitted inhibition curve with a large enough effect; inconclusive = small, poorly fitted or top-dose-only effect, or another doubt; inactive = no such curve, though single readings can be large or run the other way. No potency is given beside an inconclusive call; the fits are too rough.

experiment: Primary qHTS for delayed death inhibitors of the malarial parasite plastid, 48 hour incubation; details: P. falciparum luciferase growth in erythrocytes; series mostly up to 28.7 µM; activity change, negative = inhibition: at the top concentration
Summary of the method: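 Read-out is firefly luciferase luminescence from an integrated reporter in P. falciparum, so falling signal marks reduced parasite growth. Infected erythrocytes were at 2% hematocrit and 0.1% parasitemia (final) in Albumax-supplemented RPMI 1640.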
% is set by controls: 0 for no effect and ±100 for the full control effect; potency is the fitted concentration of half-maximal effect; tags give direction and shape of the fitted curve.

SMILES | Potency | activity change, negative = inhibition
O=C(CCl)N(c1ccccc1)C1CCS(=O)(=O)C1 (centres undefined) | active: 11.7 µM | –
O=C(Nc1ccc(Sc2ccc(Br)cc2)cc1)c1ccco1 | active: 2.33 µM | –
CN(C(=O)COC(=O)c1nc(Cl)ccc1Cl)C1CCS(=O)(=O)C1 (centres undefined) | – | inactive: 2.04%
COc1ccc(C2C=C(c3ccc(Br)s3)Nc3ncnn32)cc1OC (centres undefined) | inconclusive [inhibitor, single point] | –
Cc1ccc(N2C(=O)C(Cl)=C(Nc3c(C)n(C)n(-c4ccccc4)c3=O)C2=O)cc1 | inconclusive [inhibitor, single point] | –
COc1ccc(Cc2nc(C(=O)NCc3ccccc3OC)cs2)cc1 | inconclusive [inhibitor, partial curve, poor fit] | –
CCN(CC)CCNC(=O)c1cc(Nc2ccc(OC)c(OC)c2)nc2ccccc12 | inconclusive [inhibitor, single point] | –
CCC(=O)Nc1nc2ccc(NC(=O)c3cc(OC)c(OC)c(OC)c3)cc2s1 | inconclusive [inhibitor, single point] | –
COc1ccc(Cl)cc1NC(=O)C1CCCN(S(=O)(=O)c2cccc3nonc23)C1 (centres undefined) | inconclusive [inhibitor, single point] | –
O=C(COC(=O)CNC(=O)c1sc2ccccc2c1Cl)Nc1c(Cl)cc(Cl)cc1Cl | – | inactive: -13.2%
COc1ccc(OC)c(S(=O)(=O)NCc2nc3nc(C)cc(C)n3n2)c1 | – | inactive: -7.18%
COc1ccc(N2CC(C(=O)N(C)CC(=O)Nc3ccc(Cl)c(C(F)(F)F)c3)CC2=O)c(OC)c1 (centres undefined) | inconclusive [inhibitor, partial curve] | –
COC(=O)c1cc(Nc2cc(C)c3ccc(O)cc3n2)cc(C(=O)OC)c1 | inconclusive [inhibitor, full curve] | –
Cc1cc(OC(C)C(=O)NCc2cccnc2)c2c3c(c(=O)oc2c1)CCC3 (centres undefined) | inconclusive [inhibitor, single point] | –
Cn1ccnc1C(O)c1cc(C(C)(C)C)c(O)c(C(C)(C)C)c1 (centres undefined) | inconclusive [inhibitor, single point] | –
CN(Cc1ccccc1)C(=O)COC(=O)c1ccccc1NS(=O)(=O)c1cccc(N)c1 | inconclusive [inhibitor, partial curve, poor fit] | –
CC(=O)c1cc2c(cc1NC(=O)Cn1nc(-c3ccc(C)cc3)ccc1=O)OCO2 | inconclusive [inhibitor, single point] | –
COc1ccc(C2(c3ccc(OC)cc3)NC(=O)N(CC(=O)N(C)C3CCC(C)CC3)C2=O)cc1 (centres undefined) | active: 10.4 µM | –
CCOC(=O)c1sc(NC(=O)c2c(CC)noc2C)nc1C | inconclusive [inhibitor, single point] | –
CCn1cc(C(=O)N2CCc3ccccc3C2)c(=O)c2cc(S(=O)(=O)N3CCCCC3)ccc21 | inconclusive [inhibitor, single point] | –
Cc1ccc(NC(=O)Nc2cccc3ccccc23)cc1 | – | inactive: 37.3%
COc1ccccc1N1CCN(C(=O)C2CCN(S(=O)(=O)c3ccc4c(c3)CC(C)N4C(=O)C3CC3)CC2)CC1 (centres undefined) | inconclusive [inhibitor, partial curve] | –

SMILES | Potency | activity change, negative = inhibition
Cc1ccc(C(C(=O)NCC2CCCO2)N(C(=O)c2snc(C(N)=O)c2N)c2ccccc2F)o1 (centres undefined) | inconclusive [inhibitor, partial curve, poor fit] | –
COc1ccc(Nc2sc(C(=O)Nc3cccc(Cl)c3)c(N)c2C(=O)Nc2ccccc2OC)cc1 | inconclusive [inhibitor, single point] | –
C=C(C)Cn1c(C)cc(C)c(S(=O)(=O)c2ccc(C)cc2)c1=O | inconclusive [inhibitor, partial curve] | –
Fc1ccc(Nc2nc(N3CCOCC3)nc(N3CCOCC3)n2)cc1Cl | inconclusive [inhibitor, partial curve] | –
CC1CCCC(C)N1C(=O)c1ccc(S(=O)(=O)N2CCCC2)cc1 (centres undefined) | inconclusive [inhibitor, single point] | –
Cc1ccc(S(=O)(=O)c2nc(S(C)(=O)=O)sc2NCc2ccc3c(c2)OCO3)cc1 | inconclusive [inhibitor, single point] | –
COc1cccc(/C=N/Nc2ncnc3scc(-c4ccccc4)c23)c1O | active: 2.94 µM | –
O=C(Nc1ccc(N=Nc2ccccc2)cc1)c1ccccc1Cl | – | inactive: 188%
C=CCOc1nc2c(c(=O)n(Cc3ccc(Cl)cc3)c(=O)n2C)n1C | inconclusive [inhibitor, partial curve, poor fit] | –
CCCCNc1ncnc2c1cnn2-c1ccc(C)cc1C | inconclusive [inhibitor, single point] | –
Cn1cc(C(=O)C(F)(F)F)c2ccccc21 | – | inactive: -4.9%
OCCCCNCc1ccc(OCc2ccccc2Cl)cc1 | inconclusive [inhibitor, single point] | –
CCN(CC(=O)Nc1ccc(NC(C)=O)cc1)C(=O)C1CCCC1 | inconclusive [inhibitor, single point] | –
Cc1ccc(NS(=O)(=O)c2ccc(C(=O)N3CCCN(C)CC3)cc2)cc1 | – | inactive: -9.26%
CCN(CC)Cc1c(O)ccc2occ(C(=O)c3ccccc3)c12 | – | inactive: 37.6%
Cc1ccc2c(c1)N(CC(=O)N1CCOCC1)C(=O)C(C)O2 (centres undefined) | – | inactive: 6.88%
CCOc1ccc(Br)cc1/C(C)=N\NC1=NCCN1 | inconclusive [inhibitor, single point] | –
COc1ccc(S(=O)(=O)N2CCN(c3ccc(F)cc3)CC2)cc1C(=O)N1CCOCC1 | – | inactive: 0.0177%
O=C1CCc2cc(NS(=O)(=O)c3cc(F)ccc3F)cc3c2N1CC3 | inconclusive [inhibitor, single point] | –
Cc1nn(CCOc2ccccc2)c(=O)n1-c1ccccc1 | – | inactive: 140%
CC1CCCC(NC(=O)c2ccc3c(=O)n(CC4CCCO4)c(=O)[nH]c3c2)C1C (centres undefined) | active: 2.62 µM | –
CC(C)(C)Nc1scc(-c2ccccc2)[n+]1-c1ccccc1 | inconclusive [inhibitor, single point] | –
